# Test results from the supplement of paper PMC12217912.
# The list shows a part of the results. Sequences were assembled here from the parent chain. Values near 0.05 are background.
# B1: TEV protease; numbered along this chain (parent)
# chain: MGESLFKGPRDYNPISSSICHLTNESDGHTTSLYGIGFGPFIITNKHLFRRNNGTLVVQSLHGVFKVKDTTTLQQHLVDGRDMIIIRMPKDFPPFPQKLKFREPQREERICLVTTNFQTKSMSSMVSDTSCTFPSGDGIFWKHWIQTKDGQCGSPLVSTRDGFIVGIHSASNFTNTNNYFTSVPKNFMELLTNQEAQQWVSGWRLNADSVLWGGHKVFMVKPEEPFQPVKEATQL
# Variants of: B1
# Experiment: raw area under fraction-flipped curve 0-4 h after induction (AUC4h, not background-subtracted), DNA-recorder readout of cleavage of the substrate (dimensionless); higher = more cleavage of the substrate by the protease variant
# Conditions: temperature: 34 °C; time window: 0-4 h after rhamnose induction
# Method: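 In vivo DNA recorder in E. coli TOP10(DE3) ΔrhaA at 34 °C. Each TEVp single-site mutant (parent TEVp 0) is paired with a single-site variant of the 7-mer TEVs (canonical ENLYFQ|S). The substrate sits between flexible linkers in a Bxb1-sfGFP-TEVs-SsrA fusion, so cleavage stabilises Bxb1 and speeds flipping of a recombination array, read by NGS. The value is the raw area under the fraction-flipped curve over 0-4 h after rhamnose induction (AUC4h), with ≥20 reads per time point. It is not background-subtracted; inactive controls average about 0.047.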
# 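Further: Bxb1 expression induced with 0.2% (w/v) L-rhamnose at OD600 near 0.5, cultures sampled hourly, flipped fraction per protease–substrate barcode pair counted by paired-end Illumina sequencing.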
Variant,area with substrate ANLYFQS,area with substrate CNLYFQS,area with substrate DNLYFQS,area with substrate FNLYFQS,area with substrate GNLYFQS,area with substrate HNLYFQS,area with substrate INLYFQS,area with substrate KNLYFQS,area with substrate LNLYFQS,area with substrate MNLYFQS,area with substrate PNLYFQS,area with substrate QNLYFQS,area with substrate SNLYFQS,area with substrate TNLYFQS,area with substrate VNLYFQS,area with substrate WNLYFQS,area with substrate YNLYFQS,area with substrate NNLYFQS,area with substrate RNLYFQS
MGESLFKGPRDYNPISSSICHLTNESDGHTTSLYGIGFGPFIITNKHLFRRNNGTLVVQSLHGVFKVKDTTTLQQHLVDGRDMIIIRMPKDFPPFPQKLKFREPQREERICLVTTNFQTKSMSSMVSDTSCTFPSGDGIFWKHWIQTKDGQCGSPLVSTRDGFIVGIHSASNFTNTNNYFTSVPKNFMELLTNQEAQQWVSGWRLNADSVLWGGHKVFMRKPEEPFQPVKEATQL [V220R],0.0747,0.0586,0.0699,0.0642,0.0819,0.0897,0.0607,0.0584,0.0601,0.0805,0.0736,0.0799,0.0705,0.0687,0.07,0.0714,0.0486,–,–
MGESLFKGPRDYNPISSSICHLTNESDGHTTSLYGIGFGPFIITNKHLFRRNNGTLVVQSLHGVFKVKDTTTLQQHLVDGRDMIIIRMPKDFPPFPQKLKFREPQREERICLVTTNFQTKSMSSMVSDTSCTFPSGDGIFWKHWIQTKDGQCGSPLVSTRDGFIVGIHSASNFTNTNNYFTSVPKNFMELLTNQEAQQWVSGARLNADSVLWGGHKVFMVKPEEPFQPVKEATQL [W203A],0.0402,0.0651,0.0661,0.0594,–,0.0396,0.0603,0.0453,0.0742,–,–,–,0.0585,0.0615,0.0342,0.0614,0.056,0.053,–
MGESLFKGPRDYNPISSSICHLTNESDGHTTSLYGIGFGPFIITNKHLFRRNNGTLVVQSLHGVFKVKDTTTLQQHLVDGRDMIIIRMPKDFPPFPQKLKFREPQREERICLVTTNFQTKSMSSMVSDTSCTFPSGDGIFWKHWIQTKDGQCGSPLVSTRDGFIVGIHSASNFTNTNNYFTSVPKNFMELLTNQEAQQWVSGWHLNADSVLWGGHKVFMVKPEEPFQPVKEATQL [R204H],0.0626,0.0663,0.0959,–,0.0718,0.0496,0.0672,0.0756,0.0575,0.0559,0.0709,0.0605,–,0.0656,–,0.0623,0.0656,–,–
MGESLFKGPRDYNPISSSICHLTNESDGHTTSLYGIGFGPFIITNKHLFRRNNGTLVVQSLHGVFKVKDTTTLQQHLVDGRDMIIIRMPKDFPPFPQKLKFREPQREERICLVTTNFQTKSMSSMVSDTSCTFPSGDGIFWKHWIQTKDGQCGSPLVSTRDGFIVGIHSASNFTNTNNYFTSVPKNFMELLTNQEAQQWVSGWKLNADSVLWGGHKVFMVKPEEPFQPVKEATQL [R204K],0.0521,0.0719,0.0917,0.0735,0.0732,0.0687,0.0692,–,–,0.0926,0.0786,–,0.0674,0.0886,–,0.0669,–,0.0709,–
MGESLFKGPRDYNPISSSICHLTNESDGHTTSLYGIGFGPFIITNKHLFRRNNGTLVVQSLHGVFKVKDTTTLQQHLVDGRDMIIIRMPKDFPPFPQKLKFREPQREERICLVTTNFQTKSMSSMVSDTSCTFPSGDGIFWKHWIQTKDGQCGSPLVSTRDGFIVGIHSASNFTNTNNYFTSVPKNFMELLTNQEAQQWVSGWRLNADSVLWGGHKVFMVKPEEPFQPVKEATQL [unchanged],0.0664,0.0707,0.0807,0.0613,0.0678,0.0642,0.0647,0.0682,0.0648,0.0654,0.0683,0.0672,0.0667,0.0672,0.0655,0.0612,0.0626,0.066,0.0636
MGESLFKGPRDYNPISSSICHLTNESDGHTTSLYGIGFGPFIITNKHLFRRNNGTLVVQSLHGVFKVKDTTTLQQHLVDGRDMIIIRMPKDFPPFPQKLKFREPQREERICLVTTNFQTKSMSSMVSDTSCTFPSGDGIFWKHWIQTKDGQCGSPLVSTRDGFIVGIHSASNFTNTNNYFTSVPKNFMELLTNQEAQQWVSGWRLNAESVLWGGHKVFMVKPEEPFQPVKEATQL [D208E],0.0578,–,0.0594,–,–,–,–,–,0.0876,–,0.0624,–,0.0589,0.0585,–,–,–,–,–
MGESLFKGPRDYNPISSSICHLTNESDGHTTSLYGIGFGPFIITNKHLFRRNNGTLVVQSLHGVFKVKDTTTLQQHLVDGRDMIIIRMPKDFPPFPQKLKFREPQREERICLVTTNFQTKSMSSMVSDTSCTFPSGDGIFWKHWIQTKDGQCGSPLVSTRDGFIVGIHSASNFTNTNNYFTSVPKNFMELLTNQEAQQWVSGWRLNAVSVLWGGHKVFMVKPEEPFQPVKEATQL [D208V],0.0857,0.0537,–,–,0.0553,0.0557,–,–,0.0704,0.0576,–,0.0588,–,0.0575,–,0.082,0.0646,–,0.0607
MGESLFKGPRDYNPISSSICHLTNESDGHTTSLYGIGFGPFIITNKHLFRRNNGTLVVQSLHGVFKVKDTTTLQQHLVDGRDMIIIRMPKDFPPFPQKLKFREPQREERICLVTTNFQTKSMSSMVSDTSCTFPSGDGIFWKHWIQTKDGQCGSPLVSTRDGFIVGIHSASNFTNTNNYFTSVPKNFMELLTNQEAQQWVSGWRLNADSVLWGGHKVFMVKHEEPFQPVKEATQL [P222H],0.0696,0.0658,0.0665,0.0779,0.0584,0.06,–,0.0748,0.052,0.0624,0.064,–,0.0519,0.0671,–,0.0476,0.0668,0.0667,–
MGESLFKGPRDYNPISSSICHLTNESDGHTTSLYGIGFGPFIITNKHLFRRNNGTLVVQSLHGVFKVKDTTTLQQHLVDGRDMIIIRMPKDFPPFPQKLKFREPQREERICLVTTNFQTKSMSSMVSDTSCTFPSGDGIFWKHWIQTKDGQCGSPLVSTRDGFIVGIHSASNFTNTNNYFTSVPKNFMELLTNQEAQQWVSGWRLNADSVLWGGHKVFMVKPEEPCQPVKEATQL [F226C],0.0669,0.0904,0.0959,0.0527,–,0.0688,–,0.0697,0.0675,–,0.119,–,0.052,0.0665,–,0.0467,0.0698,–,–
MGESLFKGPRDYNPISSSICHLTNESDGHTTSLYGIGFGPFIITNKHLFRRNNGTLVVQSLHGVFKVKDTTTLQQHLVDGRDMIIIRMPKDFPPFPQKLKFREPQREERICLVTTNFQTKSMSSMVSDTSCTFPSGDGIFWKHWIQTKDGQCGSPLVSTRDGFIVGIHSASNFTNTNNYFTSVPKNFMELLTNQEAQQWVSGWRLNADSVLWGGHKVFMVRPEEPFQPVKEATQL [K221R],0.0776,0.0677,0.0777,0.0751,0.0604,0.0743,0.0866,0.0632,0.0606,0.113,0.0677,–,0.0663,0.0724,0.0613,0.0658,0.0583,0.0697,0.0652
MGESLFKGPRDYNPISSSICHLTNESDGHTTSLYGIGFGPFIITNKHLFRRNNGTLVVQSLHGVFKVKDTTTLQQHLVDGRDMIIIRMPKDFPPFPQKLKFREPQREERICLVTTNFQTKSMSSMVSDTSCTFPSGDGIFWKHWIQTKDGQCGSPLVSTRDGFIVGIHSASNFTNTNNYFTSVPKNFMELLTNQEAQQWVSGWRLNADSVLWGGHFVFMVKPEEPFQPVKEATQL [K216F],0.0321,0.068,–,0.0379,–,0.0537,–,0.0601,–,–,0.052,–,–,0.062,–,0.04,0.0489,–,–
MGESLFKGPRDYNPISSSICHLTNESDGHTTSLYGIGFGPFIITNKHLFRRNNGTLVVQSLHGVFKVKDTTTLQQHLVDGRDMIIIRMPKDFPPFPQKLKFREPQREERICLVTTNFQTKSMSSMVSDTSCTFPSGDGIFWKHWIQTKDGQCGSPLVSTRDGFIVGIHSASNFTNTNNYFTSVPKNFMELLTNQEAQQWVSGWRLNADSVLWGGHIVFMVKPEEPFQPVKEATQL [K216I],0.08,0.0828,–,–,0.0791,–,0.0512,0.0669,–,–,–,–,–,–,–,–,–,–,–
MGESLFKGPRDYNPISSSICHLTNESDGHTTSLYGIGFGPFIITNKHLFRRNNGTLVVQSLHGVFKVKDTTTLQQHLVDGRDMIIIRMPKDFPPFPQKLKFREPQREERICLVTTNFQTKSMSSMVSDTSCTFPSGDGIFWKHWIQTKDGQCGSPLVSTRDGFIVGIHSASNFTNTNNYFTSVPKNFMELLTNQEAQQWVSGWRLNADSVLWGGHKVFMVKPEEPFQPVKENTQL [A232N],0.0469,0.0949,0.0789,0.0557,–,–,–,–,0.0721,–,0.065,0.063,0.0656,–,0.0734,0.0615,0.0519,–,–
MGESLFKGPRDYNPISSSICHLTNESDGHTTSLYGIGFGPFIITNKHLFRRNNGTLVVQSLHGVFKVKDTTTLQQHLVDGRDMIIIRMPKDFPPFPQKLKFREPQREERICLVTTNFQTKSMSSMVSDTSCTFPSGDGIFWKHWIQTKDGQCGSPLVSTRDGFIVGIHSASNFTNTNNYFTSVPKNFMELLTNQEAQQWVSGWRLNADSVLWGGHKVFMVKPEEPFQPVKESTQL [A232S],0.0543,0.0751,–,–,–,0.066,–,0.0789,0.0707,0.0649,–,0.0846,–,–,–,0.0543,–,0.055,–
MGESLFKGPRDYNPISSSICHLTNESDGHTTSLYGIGFGPFIITNKHLFRRNNGTLVVQSLHGVFKVKDTTTLQQHLVDGRDMIIIRMPKDFPPFPQKLKFREPQREERICLVTTNFQTKSMSSMVSDTSCTFPSGDGIFWKHWIQTKDGQCGSPLVSTRDGFIVGIHSASNFTNTNNYFTSVPKNFMELLTNQEAQQWHSGWRLNADSVLWGGHKVFMVKPEEPFQPVKEATQL [V200H],0.0626,0.0476,0.0726,–,0.054,0.0608,0.0536,0.0619,0.0634,0.0538,0.0607,0.0587,0.0572,0.0585,0.0656,0.0511,0.0645,0.046,–
MGESLFKGPRDYNPISSSICHLTNESDGHTTSLYGIGFGPFIITNKHLFRRNNGTLVVQSLHGVFKVKDTTTLQQHLVDGRDMIIIRMPKDFPPFPQKLKFREPQREERICLVTTNFQTKSMSSMVSDTSCTFPSGDGIFWKHWIQTKDGQCGSPLVSTRDGFIVGIHSASNFTNTNNYFTSVPKNFMELLTNQEAQQWVSGWRLNADSVLWGGHKVFMVKPEAPFQPVKEATQL [E224A],0.0614,0.0655,0.0577,–,–,0.0598,0.065,0.0669,0.0737,–,0.0811,0.0749,0.0652,0.0664,0.0802,0.0701,0.0693,0.0623,–
MGESLFKGPRDYNPISSSICHLTNESDGHTTSLYGIGFGPFIITNKHLFRRNNGTLVVQSLHGVFKVKDTTTLQQHLVDGRDMIIIRMPKDFPPFPQKLKFREPQREERICLVTTNFQTKSMSSMVSDTSCTFPSGDGIFWKHWIQTKDGQCGSPLVSTRDGFIVGIHSASNFTNTNNYFTSVPKNFMELLTNQEAQQWVSGWRLNADSVLWGGHKVFMVKPESPFQPVKEATQL [E224S],0.0612,0.0857,0.117,0.0658,–,0.0673,0.0653,–,0.0757,0.0716,0.0781,–,–,0.0437,–,0.0595,0.0587,–,–
MGESLFKGPRDYNPISSSICHLTNESDGHTTSLYGIGFGPFIITNKHLFRRNNGTLVVQSLHGVFKVKDTTTLQQHLVDGRDMIIIRMPKDFPPFPQKLKFREPQREERICLVTTNFQTKSMSSMVSDTSCTFPSGDGIFWKHWIQTKDGQCGSPLVSTRDGFIVGIHSASNFTNTNNYFTSVPKNFMELLTNQEAQQWVSGWRLNADSVLWGGHKVFMVKPEVPFQPVKEATQL [E224V],0.0634,0.0654,0.0756,–,0.0387,0.065,0.063,0.063,0.0454,0.0559,0.0577,0.0745,0.0646,0.0553,–,0.0705,0.0542,0.0726,–
